# The campaign covered roughly 310,000 compounds. About 2,200 (0.71%) showed an effect of 50% or more. Effects have a minus sign here. The list shows a part of the results.
# Target: human ether-à-go-go-related gene (hERG) potassium channel (human, UniProt Q12809)
# Test: primary screen, population patch clamp on CHO cells stably expressing hERG
# Chain of human ether-à-go-go-related gene (hERG) potassium channel (Q12809 whole entry, looked up): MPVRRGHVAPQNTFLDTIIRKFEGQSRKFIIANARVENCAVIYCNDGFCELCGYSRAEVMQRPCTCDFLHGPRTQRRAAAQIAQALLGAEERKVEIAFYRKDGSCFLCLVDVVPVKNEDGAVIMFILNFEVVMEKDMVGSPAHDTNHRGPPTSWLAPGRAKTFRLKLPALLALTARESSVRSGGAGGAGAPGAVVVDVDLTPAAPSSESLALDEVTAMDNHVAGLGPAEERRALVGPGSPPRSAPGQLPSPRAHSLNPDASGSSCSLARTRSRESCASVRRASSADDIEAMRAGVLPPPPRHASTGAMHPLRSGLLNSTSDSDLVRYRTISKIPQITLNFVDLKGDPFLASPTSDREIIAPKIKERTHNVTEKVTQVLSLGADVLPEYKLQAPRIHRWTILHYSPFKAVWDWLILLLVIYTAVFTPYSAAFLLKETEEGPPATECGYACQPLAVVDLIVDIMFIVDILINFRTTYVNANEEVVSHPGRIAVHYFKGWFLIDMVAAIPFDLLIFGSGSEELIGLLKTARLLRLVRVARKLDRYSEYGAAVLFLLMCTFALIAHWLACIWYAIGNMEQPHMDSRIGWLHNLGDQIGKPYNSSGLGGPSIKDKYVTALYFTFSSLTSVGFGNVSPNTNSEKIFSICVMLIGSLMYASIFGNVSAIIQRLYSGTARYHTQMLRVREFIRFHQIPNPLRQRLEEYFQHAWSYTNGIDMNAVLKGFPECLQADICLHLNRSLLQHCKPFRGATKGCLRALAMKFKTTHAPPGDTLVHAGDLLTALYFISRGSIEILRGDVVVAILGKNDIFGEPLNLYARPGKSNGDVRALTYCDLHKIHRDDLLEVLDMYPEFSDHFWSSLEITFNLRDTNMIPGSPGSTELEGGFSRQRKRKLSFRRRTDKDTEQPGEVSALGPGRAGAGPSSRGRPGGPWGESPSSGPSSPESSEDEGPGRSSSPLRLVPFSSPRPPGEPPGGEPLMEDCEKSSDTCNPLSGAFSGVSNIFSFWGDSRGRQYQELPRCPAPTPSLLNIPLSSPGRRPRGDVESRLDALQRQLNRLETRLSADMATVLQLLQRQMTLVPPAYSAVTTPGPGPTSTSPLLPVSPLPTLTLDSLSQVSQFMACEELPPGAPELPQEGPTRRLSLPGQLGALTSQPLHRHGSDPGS
row,Structure (SMILES),"hERG current change (%, negative = inhibition) at 1uM"
1,O=C(Nc1ccc2nsnc2c1)NC1CCCCC1,3.53%
2,CC(=O)c1c(C(C)=O)c(C)n(C2CCCCC2)c1C,11%
3,CC(C)C(C)NC(=O)COC(=O)/C=C/c1ccc(S(=O)(=O)N2CCc3ccccc32)cc1 (stereo not shown),15.7%
4,Cc1ccc(N=Nc2ccc(O)c3ncccc23)cc1C,3.59%
5,CCOCCCn1c(SCC(=O)/C(C#N)=C(\C)N)nc2ccccc2c1=O,16.9%
6,Cc1occc1C(=O)NCCCCNC(=O)c1ccoc1C,-9.6%
7,COc1ccc2cc(CN(Cc3ccco3)C(c3nnnn3C3CCCCC3)C(C)C)c(=O)[nH]c2c1 (stereo not shown),5.63%
8,Cc1cccc(C)c1Nc1nnc(SC/C(O)=C(\C#N)c2nc3ccccc3[nH]2)s1,21.8%
9,Cc1cc(S(=O)(=O)N2CCCCC2CCNC(=O)C(=O)NCC2CCCO2)ccc1F (stereo not shown),6.34%
10,O=C(CCCn1c(SCC(=O)NC2CCCCC2)nc2ccccc2c1=O)NCC1CCCO1 (stereo not shown),-27.5%
11,COc1ccc(/C=N/NC(=O)C2c3ccccc3Oc3ccccc32)c(OC)c1,11.6%
12,O=C(Oc1cccc(NC2=NS(=O)(=O)c3ccccc32)c1)c1cccnc1,22.3%
13,CCCCNC(=O)C(=O)NCCCn1ccnc1,9.93%
14,CC(C(=O)Nc1ccccc1-c1ccccc1)N(C)Cc1nc2ccccc2c(=O)[nH]1 (stereo not shown),12.1%
15,O=C(c1cn(Cc2ccccc2)c2ccccc12)N1CCCCC1,6.07%
16,Cn1c(=O)c2c(nc(NCCO)n2C)n(C)c1=O,14.8%
17,COc1ccc(Br)c(C(=O)N2CCN(S(=O)(=O)/C=C/c3ccccc3)CC2)c1,1.93%
18,COc1cccc(OCC(O)CNC(=O)c2oc3ccc(C)cc3c2C)c1 (stereo not shown),11%
19,Cc1ccc(NC(=O)CN(C)C(=O)COc2ncnc3ccc(Br)cc23)cc1,14%
20,O=C(O)CCCN1C(=O)/C(=C/c2ccncc2)SC1=S,10.1%
21,COc1ccc(C(CNC(=O)c2ccc3c(c2)OCCO3)N(C)C)cc1 (stereo not shown),10%
22,CN(CC(=O)Nc1cccc(F)c1)C(=O)c1ccc(N2CCOCC2)c([N+](=O)[O-])c1,-15.1%

row,Structure (SMILES),"hERG current change (%, negative = inhibition) at 1uM"
1,N#Cc1c(NC(=O)CN2CCN(C(=O)c3ccco3)CC2)sc2c1CCCCC2,1.72%
2,Cc1c(Br)c([N+](=O)[O-])nn1C(C)C(=O)NCc1cccs1 (stereo not shown),0.399%
3,Cc1cc(C)c2[nH]c(=O)c(CN(Cc3ccco3)C(=O)C3CCCO3)cc2c1 (stereo not shown),3.59%
4,COc1ccc(CNC(=O)COC(=O)C2=COCCO2)cc1,6.94%
5,COc1cccc(C(=O)NC2C(=O)N3C(C(=O)O)=C(COC(C)=O)CSC23)c1 (stereo not shown),10.6%
6,Cc1ccc(N(CN2CCCC2=O)C(=O)c2ccc(OC(C)C)cc2)cc1,10.5%
7,O=C(N/N=C/c1ccccc1C(=O)O)c1cccc(S(=O)(=O)N2CCOCC2)c1,-12%
8,O=C(COC(=O)C1CC2CCCC(C1)C2=O)Nc1nc(-c2ccc(F)c(F)c2)cs1 (stereo not shown),3.96%
9,CCOc1ccc(OCC)c(NC(=O)C2CCCN2S(=O)(=O)c2cccc3cccnc23)c1 (stereo not shown),7.29%
10,O=C(NC(=S)N1CCN(Cc2ccc3c(c2)OCO3)CC1)c1cccc(Br)c1,11.1%
11,COc1ccc(C)cc1NC(=O)c1sc2ncnc(N3CCN(c4ccccn4)CC3)c2c1C,5.86%
12,CCOc1ccc(/C=N/NC(=O)c2ccc(Cn3cc([N+](=O)[O-])cn3)o2)cc1,1.9%
13,Cl.O=C(CNC1=NCCC1)c1ccc(Cl)cc1,2.52%
14,O=C(CSc1ccc(Cl)cc1)N1CCN(c2ccc([N+](=O)[O-])cc2Cl)CC1,-9.62%
15,S=c1[nH]ccn1-c1cccc(Cl)c1,13.3%
16,Cc1ccc(NC(=O)CCNC(=O)c2ccco2)cc1,8.25%
17,Cc1cccc2c(=O)cc(C(F)(F)F)[nH]c12,13.8%
18,CCN(C(=O)COC(=O)c1cc(S(=O)(=O)Nc2c(C)n(C)n(-c3ccccc3)c2=O)ccc1Cl)C1CCCCC1,-0.145%
19,CCCCn1c(N)c(N(CCOC)C(=O)c2cc(-c3ccc(OC)cc3)nc3ccccc23)c(=O)[nH]c1=O,-0.502%
20,COc1ccc(CCN(C)C(=O)c2cc(S(=O)(=O)N3CCCCCC3)ccc2OC)cc1OC,-5.57%
21,CSCCC(NC(=O)c1ccccc1)C(=O)NNC(=O)c1csc(N2CCOCC2)n1 (stereo not shown),9.72%
22,CCOC(=O)C1CCCN(C(=O)/C=C/c2ccc(OC)cc2)C1 (stereo not shown),-0.521%

row,Structure (SMILES),"hERG current change (%, negative = inhibition) at 1uM"
1,COc1ccc(OC)c(/C=C/C(=O)N2CCN(S(=O)(=O)c3ccc(C)cc3C)CC2)c1,2.08%
2,COc1ccccc1OCc1nc(C#N)c(N2CC(C)CC(C)C2)o1 (stereo not shown),-0.921%
3,O=C(CN1CCCC1)OCCCc1ccccc1,17%
4,Cc1cccc(NC2=Nc3ccccc3N3C2=Nc2c(c(C)nn2-c2ccccc2)C3c2ccc(O)c(O)c2)c1 (stereo not shown),3.03%
5,CSc1ccc(C#N)cc1NC(=O)c1cccnc1Cl,16.3%
6,Cc1ccc(CCNC(=O)C2CCN(S(=O)(=O)N3CCC4(CC3)OCCO4)CC2)cc1,9.02%
7,CCc1nnc(NC(=O)CSc2nnc(-c3ccc(NS(=O)(=O)c4ccccc4)cc3)o2)s1,17.1%
8,Cc1nc(N2CCC3(CC2)OCCO3)c2nnn(Cc3ccccc3F)c2n1,0.16%
9,O=C(O)CCn1cc(-c2ccc(F)cc2)nc1-c1ccncc1,11.4%
10,NC(=O)c1cc(N)ccc1N1CCCCC1,5.55%
11,Cn1ccnc1SCC(=O)c1c[nH]c2ccccc12,16.1%
12,CCOC(=O)c1ccc(NCc2cccnc2)cc1,8.24%
13,O=C(NNS(=O)(=O)c1cccc(Cl)c1)c1cc(-c2ccc(F)cc2)nc2ccccc12,8.1%
14,CC(=O)c1ccccc1NC(=O)C1CCCN(C(=O)c2ccc(Cl)cc2)C1 (stereo not shown),-7.87%
15,CCOc1cc(NC(=O)c2cccs2)c(OCC)cc1NC(=O)CCC(=O)NCCN1CCOCC1,11.3%
16,Cc1cc(C)c(C#N)c(SCC(=O)Nc2ccccc2)n1,11.4%
17,COc1ccc(N(C(C)C(=O)N/N=C/c2ccc(OC(C)C)cc2)S(C)(=O)=O)cc1 (stereo not shown),4.36%
18,O=C(O)CC(NC(=O)C12CC3CC(CC(C3)C1)C2)c1cccc(Cl)c1 (stereo not shown),7.61%
19,Cc1ccc(S(=O)(=O)NCCOc2cc(C)ccc2C)cc1,8.75%
20,O=Cc1ccc(OC(=O)C2CC(=O)N(c3ccc(F)cc3)C2)cc1 (stereo not shown),15.6%
21,CCOC(=O)C1(Cc2cccc(F)c2)CCN(CC(O)CO)CC1 (stereo not shown),12.9%
22,Cc1ccn2c(=O)nc(SCC(=O)c3ccccc3)nc2c1,3.64%

row,Structure (SMILES),"hERG current change (%, negative = inhibition) at 1uM"
1,COC(=O)c1c(NC(=O)c2ccc([N+](=O)[O-])o2)sc2c1CCN(C(C)C)C2.Cl,8.41%
2,COC(=O)C(O)(CC(=O)Nc1cc(OC)c(OC)c(OC)c1)C(F)(F)F (stereo not shown),14.7%
3,COc1ccc(C)cc1NC(=O)c1cc(S(=O)(=O)N2CCC3(CC2)OCCO3)ccc1F,-3.95%
4,O=S(=O)(Nc1ccc(S(=O)(=O)N2CCCCC2)cc1)c1ccc(Br)s1,6.74%
5,Cc1nc2c(C(=O)NCCC(C)C)c[nH]n2c(=O)c1Cl,6.36%
6,CC(=O)C1=C(O)C(=O)N(c2ccc(Br)cc2)C1c1cccc([N+](=O)[O-])c1 (stereo not shown),18.1%
7,CCCCCCOC(=O)Nc1ccc(S(=O)(=O)Nc2cccc([N+](=O)[O-])c2)cc1,8.97%
8,CCCC(=O)Nc1nc2ccc(NC(=O)c3ccccc3F)cc2s1,14.1%
9,COCCn1c(C)cc(C(=O)COC(=O)c2ccccc2Br)c1C,-21.6%
10,Cn1c2ccccc2c2cnn(CC(=O)Nc3ccc(Cl)cc3)c(=O)c21,8.19%
11,COc1ccc(N(CC(=O)NC2CCCC2)C(=O)c2ccc(N3CCCCC3)nc2)cc1,17.3%
12,CCCCC(=O)Oc1ccccc1C1SCc2cc(C)c(C)cc2CS1,13.9%
13,CCn1c2ccccc2c2cc(NC(=O)C/C(C)=N/NC(=O)c3ccccc3N)ccc21,5.42%
14,COc1ccc(Br)cc1S(=O)(=O)Nc1cccc(C)n1.Cl,8.39%
15,CCCCn1c(N)c(N(CCOC)C(=O)c2cc(-c3ccncc3)nc3ccccc23)c(=O)[nH]c1=O,18.9%
16,O=C(CN1CCC(O)(c2cccc(C(F)(F)F)c2)CC1)NCCc1ccccc1,2.25%
17,CCCC(=O)N(c1ccc2oc(C)c(C(C)=O)c2c1)S(=O)(=O)c1ccc(C(=O)O)cc1,17.6%
18,CCOC(=O)N1CCC(Nc2c(NCCCN3CCN(C4CCCCC4)CC3)c(=O)c2=O)CC1,6.83%
19,COc1cc(S(=O)(=O)N(CCc2ccccc2)Cc2cccs2)ccc1-n1cnnn1,12.9%

# — PMC4336329 (PLoS ONE, 2015)
